Results reported in PMC7737610.
Where two headings read alike, the source gives them in different places. No constants are given. Whether binding was seen depends on the method and setting. Binding seen in cells or lysates may run through a third protein. Some binding calls cover weakened binding; strength is not graded here. For part of these data: Tags and fused reporters may be left off the sequences shown.

Chains of the proteins cited; added tags and fusions are not shown. Lines headed by an entry give the natural chain unless they say otherwise; changes in a name come on top.
UniProt Q8TDY2: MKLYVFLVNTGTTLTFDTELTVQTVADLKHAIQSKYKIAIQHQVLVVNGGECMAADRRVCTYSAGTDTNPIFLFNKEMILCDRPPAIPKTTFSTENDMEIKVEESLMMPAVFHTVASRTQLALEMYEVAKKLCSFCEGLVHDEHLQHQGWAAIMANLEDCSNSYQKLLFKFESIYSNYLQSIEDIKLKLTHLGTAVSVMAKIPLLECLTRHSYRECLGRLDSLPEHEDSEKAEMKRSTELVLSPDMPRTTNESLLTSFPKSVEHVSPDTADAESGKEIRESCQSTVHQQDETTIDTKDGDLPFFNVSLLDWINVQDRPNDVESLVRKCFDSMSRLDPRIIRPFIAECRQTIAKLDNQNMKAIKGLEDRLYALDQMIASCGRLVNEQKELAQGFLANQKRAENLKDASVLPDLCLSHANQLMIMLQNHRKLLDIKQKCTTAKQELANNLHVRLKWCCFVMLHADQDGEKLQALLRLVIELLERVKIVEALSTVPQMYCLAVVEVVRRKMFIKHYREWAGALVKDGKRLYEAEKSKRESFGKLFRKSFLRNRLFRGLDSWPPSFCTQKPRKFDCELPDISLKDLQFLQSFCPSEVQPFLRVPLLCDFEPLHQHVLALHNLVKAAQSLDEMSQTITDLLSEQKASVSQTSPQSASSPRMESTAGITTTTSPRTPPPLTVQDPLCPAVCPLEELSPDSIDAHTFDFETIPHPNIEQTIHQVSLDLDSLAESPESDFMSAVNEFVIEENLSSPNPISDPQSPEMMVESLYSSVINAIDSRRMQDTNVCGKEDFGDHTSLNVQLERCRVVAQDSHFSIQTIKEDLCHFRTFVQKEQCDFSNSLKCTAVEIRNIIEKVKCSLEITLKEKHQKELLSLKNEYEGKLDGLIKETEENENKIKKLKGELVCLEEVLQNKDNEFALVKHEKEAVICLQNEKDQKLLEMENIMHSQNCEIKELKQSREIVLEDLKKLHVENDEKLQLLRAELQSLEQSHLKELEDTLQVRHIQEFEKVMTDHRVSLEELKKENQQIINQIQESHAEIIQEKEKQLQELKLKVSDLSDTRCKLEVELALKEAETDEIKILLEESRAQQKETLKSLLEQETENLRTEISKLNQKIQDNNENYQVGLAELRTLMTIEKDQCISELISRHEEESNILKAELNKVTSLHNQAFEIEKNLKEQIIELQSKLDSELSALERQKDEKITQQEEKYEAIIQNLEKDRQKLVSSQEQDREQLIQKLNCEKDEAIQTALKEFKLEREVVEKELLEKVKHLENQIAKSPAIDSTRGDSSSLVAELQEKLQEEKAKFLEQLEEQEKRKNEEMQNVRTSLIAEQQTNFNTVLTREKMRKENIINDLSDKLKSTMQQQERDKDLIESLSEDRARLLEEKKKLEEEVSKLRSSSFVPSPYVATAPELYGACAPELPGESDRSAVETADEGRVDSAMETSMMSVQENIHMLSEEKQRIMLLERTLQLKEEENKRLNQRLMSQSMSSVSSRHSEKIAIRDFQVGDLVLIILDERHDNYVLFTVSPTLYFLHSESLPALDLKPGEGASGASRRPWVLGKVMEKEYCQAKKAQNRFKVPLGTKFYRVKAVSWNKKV
UniProt P10155: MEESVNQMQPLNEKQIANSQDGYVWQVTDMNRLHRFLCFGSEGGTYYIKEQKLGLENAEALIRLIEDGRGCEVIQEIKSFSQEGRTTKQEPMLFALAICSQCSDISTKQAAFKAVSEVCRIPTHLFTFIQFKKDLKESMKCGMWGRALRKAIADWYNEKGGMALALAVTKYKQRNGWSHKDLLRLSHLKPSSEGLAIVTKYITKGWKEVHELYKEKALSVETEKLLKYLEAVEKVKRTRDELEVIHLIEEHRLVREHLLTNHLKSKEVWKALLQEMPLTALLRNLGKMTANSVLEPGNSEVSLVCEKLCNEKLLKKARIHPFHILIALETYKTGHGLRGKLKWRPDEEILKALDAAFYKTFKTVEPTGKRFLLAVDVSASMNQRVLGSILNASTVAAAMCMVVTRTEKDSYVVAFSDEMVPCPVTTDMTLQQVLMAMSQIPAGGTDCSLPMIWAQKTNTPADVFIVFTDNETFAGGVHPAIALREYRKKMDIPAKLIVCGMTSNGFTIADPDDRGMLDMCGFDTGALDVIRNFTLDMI

Key:
TagBFP-V5-TAX1BP1^A114Q = TagBFP-V5-TAX1BP1^A114Q (UniProt Q86VP1); experiment: co-IP; HEK293T cells transfected with TagBFP-V5-TAX1BP1 variants (with myc-TAX1BP1 WT, myc-NBR1 WT or HA-FIP200 where indicated); extracts precipitated with anti-TagBFP magnetic beads; eluates immunoblotted
TagBFP-V5-TAX1BP1^1–506 = TagBFP-V5-TAX1BP1^1–506 (UniProt Q86VP1); experiment: as above
[1] = target: TagBFP-V5-TAX1BP1, wild type (UniProt Q86VP1); experiment: as above
[2] = target: T1, tf-NBR1 (tandem-fluorescent RFP-GFP fusion of NBR1) (UniProt Q14596); experiment: co-IP; tf-tagged receptor precipitated with GFP-Trap dynabeads from detergent-solubilized K562 extracts (wild type and ATG deletion lines, among them ATG9A KO and FIP200 KO); 50 mM HEPES pH 7.4, 150 mM NaCl, 2 mM EDTA, 1% Triton X-100; 1 h at 4°C; eluate immunoblotted
T1 sequence: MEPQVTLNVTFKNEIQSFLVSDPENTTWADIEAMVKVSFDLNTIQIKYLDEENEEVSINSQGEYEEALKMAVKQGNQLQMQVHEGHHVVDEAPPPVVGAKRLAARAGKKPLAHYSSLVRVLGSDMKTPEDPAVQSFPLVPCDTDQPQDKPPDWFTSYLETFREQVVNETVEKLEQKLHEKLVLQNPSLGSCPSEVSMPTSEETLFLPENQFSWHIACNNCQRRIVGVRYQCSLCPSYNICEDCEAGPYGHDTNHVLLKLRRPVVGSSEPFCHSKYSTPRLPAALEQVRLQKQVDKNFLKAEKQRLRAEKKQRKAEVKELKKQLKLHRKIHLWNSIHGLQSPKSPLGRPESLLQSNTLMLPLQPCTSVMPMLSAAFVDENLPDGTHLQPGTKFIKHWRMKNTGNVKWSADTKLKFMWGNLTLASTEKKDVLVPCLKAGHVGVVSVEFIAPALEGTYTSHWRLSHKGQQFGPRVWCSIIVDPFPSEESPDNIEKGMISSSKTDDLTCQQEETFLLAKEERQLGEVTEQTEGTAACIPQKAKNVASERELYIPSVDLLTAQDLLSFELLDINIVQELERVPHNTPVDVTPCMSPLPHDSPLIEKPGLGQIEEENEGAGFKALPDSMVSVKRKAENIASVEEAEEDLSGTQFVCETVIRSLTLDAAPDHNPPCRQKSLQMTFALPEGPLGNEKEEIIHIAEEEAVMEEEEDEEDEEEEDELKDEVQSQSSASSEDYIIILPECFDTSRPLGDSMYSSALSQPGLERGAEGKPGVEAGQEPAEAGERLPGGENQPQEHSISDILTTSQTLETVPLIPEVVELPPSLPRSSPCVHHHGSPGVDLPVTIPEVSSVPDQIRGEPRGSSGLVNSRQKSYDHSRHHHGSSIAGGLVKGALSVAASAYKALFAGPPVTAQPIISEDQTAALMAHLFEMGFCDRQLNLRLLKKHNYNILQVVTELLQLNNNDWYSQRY

[3] = target: tf-TAX1BP1 (tandem-fluorescent RFP-GFP fusion of TAX1BP1) (UniProt Q86VP1); experiment: as above
[4] = target: TagBFP-V5-TAX1BP1, wild type (UniProt Q86VP1); experiment: co-IP; HEK293T cells transfected with TagBFP-V5-TAX1BP1 variants (with myc-TAX1BP1 WT, myc-NBR1 WT or HA-FIP200 where indicated); extracts precipitated with anti-TagBFP magnetic beads; eluates immunoblotted; remark: listed apart in the source

Q: Which binding (TagBFP-V5-TAX1BP1^A114Q) does the source give for HA-FIP200 (from UniProt Q8TDY2 1-1594) here?
A: no binding

Q: “myc-TAX1BP1^WT (from UniProt Q86VP1-1 1-789)” was tested. Which binding (TagBFP-V5-TAX1BP1^1–506) did it give?
A: binds

Q: What about the binding [1] of the same molecule?
A: binds

Q: With “TROVE2, endogenous (from UniProt P10155 1-538)” as the molecule, how does the binding [2] read?
A: binds

Q: “TAX1BP1, endogenous (from UniProt Q86VP1-1 1-789)” was tested. Which binding [2] did it give?
A: binds

Q: How did the binding [3] turn out when “SQSTM1, endogenous (from UniProt Q13501 1-440)” was run?
A: binds

B1: TBK1 (enzyme, UniProt Q9UHD2 1-729)
chain: MQSTSNHLWLLSDILGQGATANVFRGRHKKTGDLFAIKVFNNISFLRPVDVQMREFEVLKKLNHKNIVKLFAIEEETTTRHKVLIMEFCPCGSLYTVLEEPSNAYGLPESEFLIVLRDVVGGMNHLRENGIVHRDIKPGNIMRVIGEDGQSVYKLTDFGAARELEDDEQFVSLYGTEEYLHPDMYERAVLRKDHQKKYGATVDLWSIGVTFYHAATGSLPFRPFEGPRRNKEVMYKIITGKPSGAISGVQKAENGPIDWSGDMPVSCSLSRGLQVLLTPVLANILEADQEKCWGFDQFFAETSDILHRMVIHVFSLQQMTAHKIYIHSYNTATIFHELVYKQTKIISSNQELIYEGRRLVLEPGRLAQHFPKTTEENPIFVVSREPLNTIGLIYEKISLPKVHPRYDLDGDASMAKAITGVVCYACRIASTLLLYQELMRKGIRWLIELIKDDYNETVHKKTEVVITLDFCIRNIEKTVKVYEKLMKINLEAAELGEISDIHTKLLRLSSSQGTIETSLQDIDSRLSPGGSLADAWAHQEGTHPKDRNVEKLQVLLNCMTEIYYQFKKDKAERRLAYNEEQIHKFDKQKLYYHATKAMTHFTDECVKKYEAFLNKSEEWIRKMLHLRKQLLSLTNQCFDIEEEVSKYQEYTNELQETLPQKMFTASSGIKHTMTPIYPSSNTLVEMTLGMKKLKEEMEGVVKELAENNHILERFGSLTMDGGLRNVDCL
Q: B1 was tested. Which binding [4] did it give?
A: binds

B2: NDP52, endogenous (protein, UniProt Q13137 1-446)
chain: MEETIKDPPTSAVLLDHCHFSQVIFNSVEKFYIPGGDVTCHYTFTQHFIPRRKDWIGIFRVGWKTTREYYTFMWVTLPIDLNNKSAKQQEVQFKAYYLPKDDEYYQFCYVDEDGVVRGASIPFQFRPENEEDILVVTTQGEVEEIEQHNKELCKENQELKDSCISLQKQNSDMQAELQKKQEELETLQSINKKLELKVKEQKDYWETELLQLKEQNQKMSSENEKMGIRVDQLQAQLSTQEKEMEKLVQGDQDKTEQLEQLKKENDHLFLSLTEQRKDQKKLEQTVEQMKQNETTAMKKQQELMDENFDLSKRLSENEIICNALQRQKERLEGENDLLKRENSRLLSYMGLDFNSLPYQVPTSDEGGARQNPGLAYGNPYSGIQESSSPSPLSIKKCPICKADDICDHTLEQQQMQPLCFNCPICDKIFPATEKQIFEDHVFCHSL
Q: With B2 as the molecule, how does the binding [2] read?
A: no binding

Q: What about the binding [3] of the same molecule?
A: no binding
